# From PubChem BioAssay AID488969 (Vanderbilt High Throughput Screening Facility, 2010)
# The full ranking holds about 110,000 compounds; the median of “z-score” is about -0.1, and the highest 2% start at about 2. The list shows a part of the results. Non-standard residues stand in square brackets, D forms with d. Residues, ends and D or L forms follow the SMILES beside them. ξ: configuration not given here. *: point of attachment. Cbz = O=C(OCc1ccccc1)*; ξK = NCCCCC(N)C(=O)O
# Target: Metabotropic glutamate receptor 8 (Rattus norvegicus) (UniProt P70579)
# Assay: mGluR8 Gi/Go-coupled signaling modulation – cell-based, rat, thallium flux, HTS, primary screen (AID 488969)
# Conditions: HEK293 rat mGluR8, GIRK (G protein-gated inwardly rectifying potassium channel) thallium flux, FluoZin2; at 10 µM; stronger effect = higher value; submaximal glutamate (EC20) added with thallium
# Sequence of UniProt P70579 (P70579 whole entry, looked up): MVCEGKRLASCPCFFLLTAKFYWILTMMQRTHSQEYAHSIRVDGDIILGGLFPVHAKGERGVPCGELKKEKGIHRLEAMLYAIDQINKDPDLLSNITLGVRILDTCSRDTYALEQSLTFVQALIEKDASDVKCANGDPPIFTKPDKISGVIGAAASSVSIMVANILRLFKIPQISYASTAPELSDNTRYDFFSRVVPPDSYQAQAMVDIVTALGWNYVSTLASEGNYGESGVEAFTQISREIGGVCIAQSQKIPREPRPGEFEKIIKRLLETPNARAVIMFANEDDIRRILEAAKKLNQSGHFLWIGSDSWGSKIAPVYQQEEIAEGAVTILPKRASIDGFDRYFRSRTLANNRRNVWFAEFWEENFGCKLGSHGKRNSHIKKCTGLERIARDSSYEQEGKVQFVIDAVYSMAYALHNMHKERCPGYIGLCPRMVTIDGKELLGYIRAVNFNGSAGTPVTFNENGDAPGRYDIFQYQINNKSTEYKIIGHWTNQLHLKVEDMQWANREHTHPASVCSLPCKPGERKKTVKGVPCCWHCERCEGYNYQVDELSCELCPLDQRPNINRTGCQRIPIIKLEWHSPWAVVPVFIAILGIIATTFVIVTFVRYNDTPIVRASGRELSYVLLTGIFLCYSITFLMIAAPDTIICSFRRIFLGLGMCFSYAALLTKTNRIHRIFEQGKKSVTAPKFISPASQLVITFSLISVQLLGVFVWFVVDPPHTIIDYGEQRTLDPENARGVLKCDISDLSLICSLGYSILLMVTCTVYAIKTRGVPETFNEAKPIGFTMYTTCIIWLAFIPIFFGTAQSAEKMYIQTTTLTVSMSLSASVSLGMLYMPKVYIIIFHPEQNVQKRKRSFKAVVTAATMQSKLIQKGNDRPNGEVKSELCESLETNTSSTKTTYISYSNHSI
row,Structure (SMILES),z-score
1,Cc1c(NC(=O)COC(=O)c2cc(-c3cccc4ccccc34)nc3ccccc23)c(=O)n(-c2ccccc2)n1C,-0.0754
2,COc1cc(OC)cc(-c2nc3ccccc3s2)c1,-0.129
3,Cc1ccc(NC(=O)/C(=C\C=C\c2ccccc2)NC(=O)c2ccccc2)cc1,0.255
4,COc1ccc(OCCSc2nnc(CCNC(=O)c3ccc(OC)cc3)n2C)cc1,-0.0847
5,COc1ccccc1CNC(=O)C1CCCN(S(=O)(=O)c2cccc3cccnc23)C1 (stereo not drawn),0.0773
6,CCN(CC)c1ccc(/C=C/c2nc3ccccc3s2)cc1,-0.178
7,COc1cc(/C=N/NC(=O)c2ccoc2C)cc(OC)c1OC,-0.182
8,COc1cccc(C(=O)N(Cc2ccc3c(c2)OCO3)Cc2nc3ccccc3c(=O)[nH]2)c1,-0.152
9,CC1CCN(S(=O)(=O)c2ccc(S(=O)(=O)NCC(=O)C(C)(C)C)cc2)CC1,1.53
10,CCOc1ccccc1N(CC(=O)Nc1cc(OC)ccc1OC)S(C)(=O)=O,0.0169
11,O=S(=O)(Nc1nc2ccccc2nc1NCc1ccco1)c1cccs1,-0.0891
12,CCCCN1C(=O)NC(NC(=O)c2ccco2)(C(F)(F)F)C1=O (stereo not drawn),-0.734
13,O=C(/C=C/c1cccs1)NC(=S)NNC(=O)Cc1cccs1,1.65
14,COc1ccc(NC(=O)CSc2nnc(-c3ccccn3)n2-c2ccccc2)cc1OC,-0.14
15,O=C(O)CCC(=O)Nc1ccc(Br)cn1,0.224
16,CCOC(=O)CC1C(=O)NCCN1C(=O)c1c(F)cccc1F (stereo not drawn),0.00182
17,COc1ccc(NC(=O)Cc2c(C)n(C(=O)c3ccc(Cl)cc3)c3ccc(OC)cc23)cc1,-0.319
18,CN(C)CCCNc1oc(-c2cccc(Cl)c2)nc1C#N,-0.825
19,CC(C)CC(=O)Nc1ccc(C(=O)NN2C(=O)c3ccccc3C2=O)cc1,-0.193
20,CCOC(=O)CCNc1n[nH]c(=O)[nH]c1=O,-0.0811
21,NC(=O)C1CCN(C(=O)CN2CCc3ccccc32)CC1,-0.185
22,Cc1cnc(C(=O)Nc2ccc(-n3cnnn3)cc2)cn1,-0.44
23,O=S(=O)(Nc1nccs1)c1ccc(Cl)cc1,-0.192

row,Structure (SMILES),z-score
1,CCNc1ccc(C(=O)OCC(=O)N(Cc2ccccc2)C(C)(C)C)cc1[N+](=O)[O-],-0.16
2,CC1CN(c2oc(Cc3cccc4ccccc34)nc2C#N)CC(C)O1 (stereo not drawn),-0.707
3,CN(CC(=O)Nc1ccc(Cl)c(C(F)(F)F)c1)C(=O)/C=C/c1ccco1,-0.13
4,Cc1cc(NC(=O)CSc2nnnn2Cc2ccccc2)no1,0.316
5,COc1ccccc1C(=O)Nc1nnc(SCC(=O)Nc2ccc3c(c2)oc2ccccc23)s1,-0.265
6,CCOC(=O)c1ccc(NC(=O)CSc2nc3c(c(=O)n2C)SC(C)C3)cc1 (stereo not drawn),-0.66
7,CCOC(=O)c1c(C)oc2c1c1c(c3ccccc32)OCN(Cc2cccnc2)C1,-0.341
8,CCN(CC)c1nc(SCC(=O)O)nc(N(CC)CC)n1,0.0323
9,CS(=O)(=O)NCc1ccc(C(=O)NC2CCCCC2)cc1,0.203
10,Cc1ccc2cc(C#N)c(N3CCN(C)CC3)nc2c1,-0.337
11,Cc1nccn1CCCN1C(=O)OC2(CCCCC2)C1(C)O (stereo not drawn),-0.286
12,COc1ccc(N2CSC3=C(C#N)C(c4cc(OC)ccc4OC)CC(=O)N3C2)c(OC)c1 (stereo not drawn),-0.112
13,COc1cc(C)c(/C=C(\C#N)C(=O)Nc2ccc(C)cc2)cc1C(C)C,-0.101
14,Cc1ccc(N2C(=O)NC(NC(=O)c3ccc(Cl)cc3)(C(F)(F)F)C2=O)cc1 (stereo not drawn),-0.201
15,Cc1nc2c(C(=O)NCCc3ccccc3)c[nH]n2c(=O)c1Cl,-1.9
16,Cc1nc2ccc(F)cc2cc1C(=O)Nc1ccc(Cl)c(Cl)c1,0.146
17,O=[N+]([O-])c1ccc2c(c1)C(N1CCOCC1)/C(=C/COc1ccc(Cl)cc1Cl)O2 (stereo not drawn),0.0252
18,O=C(COc1cccc(Br)c1)NN=C1c2ccccc2-c2ccccc21,0.184
19,Cc1nnc(SCC(=O)NCc2ccco2)n1Cc1ccccc1,1.71
20,COc1cc(C)c(S(=O)(=O)Nc2ccccc2F)cc1C,0.015
21,Cc1ccc(C)c(S(=O)(=O)C(C#N)c2nc3ccccc3nc2N2CC(C)OC(C)C2)c1 (stereo not drawn),-0.827
22,Cc1cc(C)cc(COn2ccnc2)c1,1.24
23,O=C(c1ccco1)c1cn(CC(=O)N2CCCCC2)c2ccccc12,0.173

row,Structure (SMILES),z-score
1,CC(C)NC(=O)CC1Nc2c3ccccc3nc(=S)n2C1=O (stereo not drawn),-0.0355
2,CCOc1ccccc1-n1c(SCC(=O)NCc2ccco2)nnc1-c1ccncc1,0.345
3,O=C(NCCOc1nc(N2CCOCC2)nc(N2CCOCC2)n1)Nc1ccc(Cl)cc1,-0.0682
4,O=C(NN1CCOCC1)c1cc(-c2ccccc2)nc2ccccc12,-0.494
5,CC(C)(C)N(NC(=O)OCc1ccccc1)C(=O)c1ccccc1,-0.187
6,Cc1n[nH]c(=O)nc1NCCc1ccccc1,1.04
7,COC(=O)C(CCCCNC(=O)OCc1ccccc1)NC(=O)CN (stereo not drawn) (H-Gly-[ξK](Cbz)-OMe),-0.116
8,COc1ccc(C=Nc2cccc3c(=O)[nH][nH]c(=O)c23)c2ccccc12,-0.412
9,Cc1ccc(OCc2cc(C(=O)Nc3ccccc3)oc2C)cc1,-0.14
10,O=C1C=C(c2cccs2)CC(c2cccs2)C1n1cnc([N+](=O)[O-])c1 (stereo not drawn),-0.313
11,CC(C)CCNC(=O)C(c1cccs1)N(CC1CCCO1)C(=O)Cn1nnc2ccccc21 (stereo not drawn),-0.28
12,Cc1c(Cl)cccc1-n1c(SCC(=O)NCc2ccccc2Cl)nnc1-c1ccncc1,-0.28
13,COc1ccc(Cl)cc1NC(=O)c1nc2nc(C)cc(C(F)F)n2n1,0.261
14,COc1ccc(-c2nc3c4ccccc4[nH]c(=O)n3n2)cc1,-1.23
15,Clc1ccc(-c2csc(NNC3=NCCCCC3)n2)cc1,-0.25
16,COc1ccc([N+](=O)[O-])cc1NC(=O)CCN1CCN(c2ccccc2OC)CC1,-0.168
17,Cn1c(SCc2nnc(-c3ccc(F)cc3)o2)nnc1C1COc2ccccc2O1 (stereo not drawn),-0.382
18,O=C(Nc1nc2nccc(-c3ccccc3)n2n1)c1ccc(F)cc1,-0.642
19,O=C(CCS(=O)(=O)c1cccc2nsnc12)N1CCN(Cc2ccc3c(c2)OCO3)CC1,0.136
20,CCc1ccccc1NC(=O)CN(C)C(=O)COc1ccc(C)nc1[N+](=O)[O-],-0.538
21,CCCC1C(C#N)=C(N)Oc2cc(C)n(C)c(=O)c21 (stereo not drawn),0.662
22,Cc1ccc(S(=O)(=O)N2CCOCC2)cc1C(=O)NCCCn1ccnc1,-0.309
